# Laboratory results from PubChem BioAssay AID1346428 (National Center for Advancing Translational Sciences (NCATS), 2018).
# The campaign covered roughly 48,000 compounds. About 1,200 (2.5%) were called active. Not shown: some 2% with an inconclusive outcome.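 The calls were made as follows: active = activation of at least 60% and not above a set upper limit (about 1 call in 100 departs from these limits); inconclusive = activation of 40% to 60%, or above that upper limit; inactive = activation under 40%.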 This is one part of the list.
# Target: Probable G-protein coupled receptor 32 (Homo sapiens) (UniProt O75388)
# Sequence of UniProt O75388 (O75388 whole entry, looked up): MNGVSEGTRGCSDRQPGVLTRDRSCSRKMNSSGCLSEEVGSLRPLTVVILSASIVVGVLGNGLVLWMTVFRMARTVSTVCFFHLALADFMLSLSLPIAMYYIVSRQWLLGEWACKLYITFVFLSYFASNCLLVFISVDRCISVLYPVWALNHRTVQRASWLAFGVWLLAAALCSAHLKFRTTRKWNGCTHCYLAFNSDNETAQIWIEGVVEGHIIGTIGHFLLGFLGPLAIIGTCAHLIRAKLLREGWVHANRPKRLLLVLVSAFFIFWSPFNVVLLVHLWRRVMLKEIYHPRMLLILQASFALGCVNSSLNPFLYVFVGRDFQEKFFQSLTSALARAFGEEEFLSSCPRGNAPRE
# Assay: qHTS for Agonists of Human Resolvin D1 Receptor DRV1; also: 0% is about no effect
# Details: CHO-K1 GPR32 beta-arrestin PathHunter luminescence, 90 min; at 76.9 µM; hits give high values; zero percent set by DMSO-only wells
# In short: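 Step 1: seed CHO-K1 GPR32 beta-arrestin cells, 2,500/well, overnight at 37 °C. Step 2: add compounds, 90 min at 37 °C. Step 3: detection reagent, 1 h ambient, then luminescence.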
row,SMILES,activation
1,COc1ccc(N2CC(NC(=O)C3CCCC3)CC2=O)cc1 (centres undefined),inactive: -2.49%
2,COc1ccc(OC)c(CNC(=O)CCC(=O)N2Cc3ccccc3Oc3ncccc32)c1,inactive: -3.63%
3,COc1ccc2nc(NC(=O)c3nc(SCc4cccc(C)c4)ncc3Cl)sc2c1,inactive: -0.997%
4,Cc1ccccc1CNC(=O)Cn1cc2c(n1)-c1c(oc(C(=O)N3CCCC3)c1C)CC2,inactive: 6.43%
5,COc1ccccc1NC(=O)C1=C(C)Nc2ncnn2C1c1sccc1C (centres undefined),inactive: -4.3%
6,CC1CCc2c(sc(NC(=O)COc3ccccc3C(C)(C)C)c2C#N)C1 (centres undefined),inactive: 18.3%
7,O=C(CSc1nc2c([nH]c3ccccc32)c(=O)n1-c1ccccc1)N1CCCCCC1,inactive: -31.8%
8,O=C(O)c1ccc(NC(=O)c2cc3ccccc3o2)cc1,inactive: 1.88%
9,O=C(NCCCN1CCN(c2ccccc2F)CC1)c1cc2c(s1)-c1ccccc1OC2,inactive: 7.3%
10,Cc1ccc(NC(=O)Cn2c(SCc3ccc(F)cc3)nc3cccnc32)cc1F,inactive: 0.328%
11,CSCCC(NS(=O)(=O)c1ccc2c(c1)oc(=O)n2C)C(=O)N1CCN(c2ccc(F)cc2)CC1 (centres undefined),inactive: -9.34%
12,CCCCOc1ccc(C(=O)N/C(=C\c2ccc(Br)cc2)C(=O)NC2CCCCC2)cc1,inactive: -5.18%
13,CCc1ccc(-n2nc(C)c3c(C)cc(=O)n(CC(=O)Nc4ccccc4C(=O)OC)c32)cc1,inactive: 27.9%
14,CCc1cccc(NC(=O)CCS(=O)(=O)c2ccc3nc(C)sc3c2)c1,inactive: 4.95%
15,Cc1cccc(-n2ccnc2SCC(=O)Nc2ccc3c(c2)OCO3)c1,inactive: 9.39%
16,O=C(Nc1cccc(F)c1)C1CCN(c2nc3ccccc3[nH]2)CC1,inactive: 6.02%
17,COc1ccc(CN2C(=O)c3oc4ccccc4c(=O)c3C2c2ccc(O)c(OC)c2)cc1 (centres undefined),inactive: -9.1%
18,COc1ccc(CNc2ncnc3c2cnn3-c2ccc(C)c(C)c2)cc1,inactive: 0.619%
19,COc1cccc(C(=O)NC2CC(=O)N(c3ccc4c(c3)OCCO4)C2)c1OC (centres undefined),inactive: 21.3%
20,CCCCSCCCNC(=O)C1CCC(CNS(=O)(=O)c2c(C)cc(C)cc2C)CC1 (centres undefined),inactive: -12.5%
21,CCOc1ccc(CNC(=O)c2ccc3c(c2)nc2n3CCC(C)C2)cc1OC (centres undefined),inactive: -7.88%
22,Cc1csc2nc(CCNS(=O)(=O)c3ccc(F)cc3)cn12,inactive: -9.32%
23,CC(=O)c1ccc(NC(=O)CCc2c(C)nn(-c3ccc(N4CCCCC4)nn3)c2C)cc1,inactive: -5.43%
24,Cc1cccc(Oc2ccc3c(c2)Oc2ccccc2NC3=O)c1,active: 94.8%
25,Cc1ccc(NC(=O)Cn2cc(S(=O)(=O)N3CCC(C)CC3)c3ccccc3c2=O)c(Br)c1,inactive: -2.46%
26,COc1ccc(CNC(=O)c2cnn(-c3ccc(F)cc3)c2-n2cccc2)cc1,inactive: -11.5%
27,CCCCN(CCCNC(=O)c1c(C)oc2nc[nH]c(=O)c12)Cc1ccccc1,inactive: -15.7%

row,SMILES,activation
1,Cc1ccc(Nc2c(-c3cccnc3)nc3ccc(Br)cn23)cc1,inactive: -0.556%
2,CNC(=O)c1c(NC(=O)c2ccc(S(=O)(=O)N3CCCCC3C)cc2)sc2c1CCC2 (centres undefined),inactive: -3.93%
3,O=S(=O)(Nc1cccc(-c2ccc(N3CCCC3)nn2)c1)c1ccc(F)c(C(F)(F)F)c1,inactive: -0.329%
4,COc1ccc(-c2nnc(SCC(=O)N(C)Cc3ccccc3)o2)cc1OC,inactive: 1.14%
5,COc1cccc(N2CCN(C(=O)CN3C(=O)COc4ccc(S(=O)(=O)N5CCC(C)CC5)cc43)CC2)c1,inactive: 17.9%
6,CCOC(=O)c1cc(-c2ccccc2)n(-c2cccc(C(=O)Nc3cccc(C(C)=O)c3)c2)c1C,inactive: -22.3%
7,Cc1oc2c(c(C)cc3oc(=O)c(CC(=O)NCc4ccccc4)c(C)c32)c1C,inactive: -2.56%
8,COc1ccc(C)cc1-n1nnc(C(=O)Nc2cccc(SC)c2)c1C,inactive: -2.23%
9,Cc1c(Cl)cccc1NC(=O)Cn1cc2c(n1)CCCC2,inactive: -9.75%
10,COc1ccc(C(=O)NCC(c2cccnc2)N2CCc3ccccc32)cc1OC (centres undefined),inactive: -23.9%
11,Cc1cccc(CNC(=O)c2ccc(NC(=O)N3CCSc4ccccc43)cc2)c1,inactive: -15.1%
12,CCCc1cc(=O)[nH]c(Nc2cc(Cl)ccc2OC)n1,inactive: -9.49%
13,CCC(C)NC(=O)c1sc2ncccc2c1-n1c(C)ccc1C (centres undefined),inactive: -4.85%
14,Cc1ccc(-n2nc(C(=O)N3CCN(c4cccc(C(F)(F)F)c4)CC3)c3c4ccccc4n(C)c3c2=O)cc1,inactive: 7.56%
15,Cc1ccc(C)c(-c2[nH]c3c(c2-c2c(-n4cccc4)n(C)c(=O)n(C)c2=O)c(=O)n(C)c(=O)n3C)c1,inactive: -12%
16,CCOc1cc(C2c3c(oc4ccccc4c3=O)C(=O)N2c2ccccn2)ccc1O (centres undefined),inactive: -5.12%
17,CCOC(=O)c1ccc2[nH]c(CSc3nnc(-c4cccc(F)c4)n3C)cc(=O)c2c1,inactive: -6.32%
18,Cc1ccc(CNc2nccn(-c3cc(C)cc(C)c3)c2=O)cc1,inactive: 46.8%
19,Cc1ccc(CNc2cc(C)nc3nc(-c4cccc(C)c4)nn23)cc1,inactive: 36.2%
20,COc1ccc(OC)c(NC(=O)c2cc(=O)c3c(C)cc(C)cc3o2)c1,inactive: -6.9%
21,CCOC(=O)c1c(NC(=O)c2cc(Cl)ccc2Cl)sc2c1CCCC2,inactive: -3.57%
22,CN(C(=O)CSc1nc2ccc(NC(=O)COc3ccccc3)cc2s1)c1ccccc1,inactive: 5.04%
23,Cc1cc(C)n(CCc2nc3c4ccccc4nc(N4CCN(c5ccc(F)cc5)CC4)n3n2)n1,inactive: 7.34%
24,Cc1cn2c(=O)c(S(=O)(=O)NCc3ccccc3Cl)c(C)nc2s1,inactive: -7.89%
25,CCOC(=O)c1cccc(NC(=O)CCc2c(C)nn(-c3ccc(N4CCOCC4)nn3)c2C)c1,inactive: 7.48%
26,CCN(C(=O)CSc1nc2n[nH]c(C)c2c(=N)n1-c1cccc(OC)c1)c1cccc(C)c1,inactive: 24%
27,CCN(C(=O)CSc1nc2ccccc2n1CC(=O)Nc1ccc(F)cc1F)c1ccccc1,inactive: -9.8%
